Measurements reported in FireProtDB (doi:10.1016/j.bpc.2005.09.016).
Where “and” joins values, the source holds several entries; their conditions need not be identical. Equal values may be shown once.

Settings: Gallus gallus; pH 1.9; 25 °C; Urea; CD; Glycine hydrochloride 0.05 M; reversible: Yes

Q: What does the source list for “Lysozyme C wild type (chain not printed)”?
A: denaturant m value: 1.19 kcal/mol/M and 1.24 kcal/mol/M and 1.13 kcal/mol/M; denaturant midpoint (higher = more stable): 4.8 M and 4.4 M and 4.2 M; unfolding free energy: 5.66 kcal/mol and 5.49 kcal/mol and 4.76 kcal/mol
